Measurements as given in a collection of fitness landscapes (doi:10.1126/science.1257360).
Some of the results follow.

B1: PhoQ; a variant is named by its letters at X, in order, P23837 (parent)
chain: MKKLLRLFFPLSLRVRFLLATAAVVLVLSLAYGMVALIGYSVSFDKTTFRLLRGESNLFYTLAKWENNKLHVELPENIDKQSPTMTLIYDENGQLLWAQRDVPWLMKMIQPDWLKSNGFHEIEADVNDTSLLLSGDHSIQQQLQEVREDDDDAEMTHSVAVNVYPATSRMPKLTIVVVDTIPVELKSSYMVWSWFIYVLSANLLLVIPLLWVAAWWSLRPIEALAKEVRELEEHNRELLNPATTRELTSLVRNLNRLLKSERERYDKYRTTLTDLTHSLKTPLXXLQXXLRSLRSEKMSVSDAEPVMLEQISRISQQIGYYLHRASMRGGTLLSRELHPVAPLLDNLTSALNKVYQRKGVNISLDISPEISFVGEQNDFVEVMGNVLDNACKYCLEFVEISARQTDEHLYIVVEDDGPGIPLSKREVIFDRGQRVDTLRPGQGVGLAVAREITEQYEGKIVAGESMLGGARMEVIFGRQHSAPKDE

Variants of: B1
Assay: enrichment ratio after two sorts for PhoP signalling (ratio (wild type AVST 3.29)); higher = more functional
Conditions: with PhoP (E. coli)

Variant | enrichment ratio
FDHP | ≤ 0.25
VRGT | ≤ 0.25
LFTD | ≤ 0.25
YKEM | ≤ 0.25
ADDI | ≤ 0.25
TNEI | 4.26
TDDW | ≤ 0.25
KCSM | ≤ 0.25
THPQ | ≤ 0.25
DCDA | ≤ 0.25
GHAL | ≤ 0.25
FYCR | ≤ 0.25
MRWT | ≤ 0.25
ARGM | ≤ 0.25
MCDW | ≤ 0.25
FFYC | ≤ 0.25
YGTR | ≤ 0.25
SMNL | 2.56
RQHD | ≤ 0.25
NKDL | ≤ 0.25
ARSV | ≤ 0.25
YPWM | ≤ 0.25
HPPA | ≤ 0.25
SWDQ | ≤ 0.25
QQMA | ≤ 0.25
PRIH | ≤ 0.25

Variant | enrichment ratio
HTCS | ≤ 0.25
RYNP | ≤ 0.25
DYQA | ≤ 0.25
SYTR | ≤ 0.25
WFVW | ≤ 0.25
IYKM | ≤ 0.25
RYPM | ≤ 0.25
TQPQ | ≤ 0.25
PAHY | ≤ 0.25
LTEE | ≤ 0.25
MYSH | ≤ 0.25
LIWT | ≤ 0.25
GAFL | ≤ 0.25
GALL | 13.8
DQSD | ≤ 0.25
IQAG | ≤ 0.25
LTGV | ≤ 0.25
NPTG | ≤ 0.25
HMLV | ≤ 0.25
INCD | ≤ 0.25
QYDN | ≤ 0.25
EHPP | ≤ 0.25
YFHQ | ≤ 0.25
GNPP | ≤ 0.25
LSHT | ≤ 0.25
LKCP | ≤ 0.25

Variant | enrichment ratio
EDHA | ≤ 0.25
LSGA | ≤ 0.25
VISC | ≤ 0.25
DPDH | ≤ 0.25
GYKC | ≤ 0.25
VFTI | ≤ 0.25
LLRP | ≤ 0.25
RPLR | ≤ 0.25
GMSN | ≤ 0.25
DHWW | ≤ 0.25
APSC | ≤ 0.25
YFLH | ≤ 0.25
RTQW | ≤ 0.25
IYPI | ≤ 0.25
IWWF | ≤ 0.25
THAN | 13.2
KRLL | ≤ 0.25
RTIS | ≤ 0.25
LCQK | ≤ 0.25
QMAT | ≤ 0.25
YHSH | 0.303
AMVF | 4.49
WVLH | ≤ 0.25
HTCA | ≤ 0.25
SHKR | ≤ 0.25
LPFS | ≤ 0.25

Variant | enrichment ratio
ARKN | ≤ 0.25
WNCN | ≤ 0.25
NPVQ | ≤ 0.25
FQDP | ≤ 0.25
NGGT | ≤ 0.25
WEAI | ≤ 0.25
SITM | 22.9
LIGV | ≤ 0.25
ESTD | ≤ 0.25
LWNL | ≤ 0.25
EQTL | ≤ 0.25
YMRA | ≤ 0.25
ASTR | ≤ 0.25
LQGV | ≤ 0.25
YILT | 0.863
YERG | ≤ 0.25
SEWA | ≤ 0.25
EPRT | ≤ 0.25
EMQA | ≤ 0.25
LWTC | ≤ 0.25
YAWA | ≤ 0.25
KKCI | ≤ 0.25
DKWQ | ≤ 0.25
ILLH | ≤ 0.25
LAVC | ≤ 0.25
SDWR | ≤ 0.25

Variant | enrichment ratio
FHKD | ≤ 0.25
CSSA | ≤ 0.25
RIMI | ≤ 0.25
TVYK | 3.76
WKRA | ≤ 0.25
MCAT | 4.13
EQRV | ≤ 0.25
GSVY | ≤ 0.25
GAGD | ≤ 0.25
DKYM | ≤ 0.25
NIKL | ≤ 0.25
YQIS | ≤ 0.25
AFED | ≤ 0.25
AWSC | ≤ 0.25
SILC | 8.13
DYTN | ≤ 0.25
NWIN | ≤ 0.25
IMCR | ≤ 0.25
GFPM | ≤ 0.25
MYIV | ≤ 0.25
HFNS | ≤ 0.25
GAGF | ≤ 0.25
KCAT | ≤ 0.25
AYKR | ≤ 0.25
WQVY | ≤ 0.25
SMLV | 8.65

Variant | enrichment ratio
SNMN | 22.4
WDCG | ≤ 0.25
ILHC | ≤ 0.25
DPIF | ≤ 0.25
DQYY | ≤ 0.25
PEHQ | ≤ 0.25
RDKY | ≤ 0.25
KFCE | ≤ 0.25
QICM | ≤ 0.25
DWWQ | ≤ 0.25
DNKV | ≤ 0.25
EMWQ | ≤ 0.25
FFNT | ≤ 0.25
NEQE | ≤ 0.25
WLFN | ≤ 0.25
WFQH | ≤ 0.25
EIFK | ≤ 0.25
GYGI | ≤ 0.25
DDTY | ≤ 0.25
GTSV | 0.71
KLPT | ≤ 0.25
TCAN | 25.6
QHQL | ≤ 0.25
